# From article PMC12820563
# Some of the results follow. The list includes weakly bound sequences.
# Molecular target: T1, MBP-FoxP3dN (UniProt Q99JB6)
# T1 sequence: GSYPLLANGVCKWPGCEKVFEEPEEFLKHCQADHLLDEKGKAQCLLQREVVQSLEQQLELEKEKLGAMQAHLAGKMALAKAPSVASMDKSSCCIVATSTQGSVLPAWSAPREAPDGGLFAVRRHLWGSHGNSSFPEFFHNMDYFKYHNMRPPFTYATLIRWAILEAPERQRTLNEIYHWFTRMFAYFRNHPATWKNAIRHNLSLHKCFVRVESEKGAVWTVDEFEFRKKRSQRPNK
# Assay: PD-seq (MBP pull-down with sequencing)
# Conditions: 20 mM Tris-HCl pH 7.5, 100 mM NaCl, 1.5 mM MgCl2, 0.4 uM protein, 0.1 uM dsDNA library, 30 min, room temperature, amylose pull-down; high values mean tight binding; double strand, one strand shown
row,Sequence,binding signal (RPM ratio (pull-down/input))
1,GATGATTGTTCTCCCAGCTGATGAATTGTTCAAATCGAGTAAACAAATTTTCCTAATCTTTCTGTTCAAGCGCCATCTAC,0.399
2,GATGATTGTTCTCCCAGCTGATGAATTTCCGGGTTCGAGTAAACAAATTTTCCTAATCTTTCTGTTCAAGCGCCATCTAC,0.307
3,GATGATTGTTCTCCCAGCTGATGAATTTACCCCGTCGAGTAAACAAATTTTCCTAATCTTTCTGTTCAAGCGCCATCTAC,0.311
4,GATGATTGTTCTCCCAGCTGATGAATTAATTCAATCGAGTAAACAAATTTTCCTAATCTTTCTGTTCAAGCGCCATCTAC,0.291
5,GATGATTGTTCTCCCAGCTGATGAATTGGACTCATCGAGTAAACAAATTTTCCTAATCTTTCTGTTCAAGCGCCATCTAC,0.407
6,GATGATTGTTCTCCCAGCTGATGAATTGGAACCATCGAGTAAACAAATTTTCCTAATCTTTCTGTTCAAGCGCCATCTAC,0.308
7,GATGATTGTTCTCCCAGCTGATGAATTCATGGGTTCGAGTAAACAAATTTTCCTAATCTTTCTGTTCAAGCGCCATCTAC,0.538
8,GATGATTGTTCTCCCAGCTGATGAATTTCGTGGTTCGAGTAAACAAATTTTCCTAATCTTTCTGTTCAAGCGCCATCTAC,0.898
9,GATGATTGTTCTCCCAGCTGATGAATTCACTATCTCGAGTAAACAAATTTTCCTAATCTTTCTGTTCAAGCGCCATCTAC,0.405
10,GATGATTGTTCTCCCAGCTGATGAATTAGGACATTCGAGTAAACAAATTTTCCTAATCTTTCTGTTCAAGCGCCATCTAC,0.784
11,GATGATTGTTCTCCCAGCTGATGAATTATGATCGTCGAGTAAACAAATTTTCCTAATCTTTCTGTTCAAGCGCCATCTAC,0.599
12,GATGATTGTTCTCCCAGCTGATGAATTAGGAAAGTCGAGTAAACAAATTTTCCTAATCTTTCTGTTCAAGCGCCATCTAC,0.198
13,GATGATTGTTCTCCCAGCTGATGAATTTTGATGATCGAGTAAACAAATTTTCCTAATCTTTCTGTTCAAGCGCCATCTAC,2.11
14,GATGATTGTTCTCCCAGCTGATGAATTTTAGGACTCGAGTAAACAAATTTTCCTAATCTTTCTGTTCAAGCGCCATCTAC,0.275
15,GATGATTGTTCTCCCAGCTGATGAATTTCACGGCTCGAGTAAACAAATTTTCCTAATCTTTCTGTTCAAGCGCCATCTAC,0.24
16,GATGATTGTTCTCCCAGCTGATGAATTTGAACGCTCGAGTAAACAAATTTTCCTAATCTTTCTGTTCAAGCGCCATCTAC,0.331

row,Sequence,binding signal (RPM ratio (pull-down/input))
1,GATGATTGTTCTCCCAGCTGATGAATTGAGTCCTTCGAGTAAACAAATTTTCCTAATCTTTCTGTTCAAGCGCCATCTAC,0.401
2,GATGATTGTTCTCCCAGCTGATGAATTGTAATAATCGAGTAAACAAATTTTCCTAATCTTTCTGTTCAAGCGCCATCTAC,0.687
3,GATGATTGTTCTCCCAGCTGATGAATTGGGGCGGTCGAGTAAACAAATTTTCCTAATCTTTCTGTTCAAGCGCCATCTAC,0.309
4,GATGATTGTTCTCCCAGCTGATGAATTGGCGGAGTCGAGTAAACAAATTTTCCTAATCTTTCTGTTCAAGCGCCATCTAC,0.247
5,GATGATTGTTCTCCCAGCTGATGAATTCACCACATCGAGTAAACAAATTTTCCTAATCTTTCTGTTCAAGCGCCATCTAC,0.517
6,GATGATTGTTCTCCCAGCTGATGAATTAGTAGTATCGAGTAAACAAATTTTCCTAATCTTTCTGTTCAAGCGCCATCTAC,2.45
7,GATGATTGTTCTCCCAGCTGATGAATTTACGGGCTCGAGTAAACAAATTTTCCTAATCTTTCTGTTCAAGCGCCATCTAC,0.348
8,GATGATTGTTCTCCCAGCTGATGAATTCACCGCGTCGAGTAAACAAATTTTCCTAATCTTTCTGTTCAAGCGCCATCTAC,0.429
9,GATGATTGTTCTCCCAGCTGATGAATTACACCCGTCGAGTAAACAAATTTTCCTAATCTTTCTGTTCAAGCGCCATCTAC,0.381
10,GATGATTGTTCTCCCAGCTGATGAATTGTCAGCGTCGAGTAAACAAATTTTCCTAATCTTTCTGTTCAAGCGCCATCTAC,0.497
11,GATGATTGTTCTCCCAGCTGATGAATTTGAAGACTCGAGTAAACAAATTTTCCTAATCTTTCTGTTCAAGCGCCATCTAC,0.276
12,GATGATTGTTCTCCCAGCTGATGAATTGCCCACGTCGAGTAAACAAATTTTCCTAATCTTTCTGTTCAAGCGCCATCTAC,0.467
13,GATGATTGTTCTCCCAGCTGATGAATTACTAAATTCGAGTAAACAAATTTTCCTAATCTTTCTGTTCAAGCGCCATCTAC,0.312
14,GATGATTGTTCTCCCAGCTGATGAATTCCCGCCATCGAGTAAACAAATTTTCCTAATCTTTCTGTTCAAGCGCCATCTAC,2.09
15,GATGATTGTTCTCCCAGCTGATGAATTTTATCCTTCGAGTAAACAAATTTTCCTAATCTTTCTGTTCAAGCGCCATCTAC,0.446
16,GATGATTGTTCTCCCAGCTGATGAATTTCGCGAATCGAGTAAACAAATTTTCCTAATCTTTCTGTTCAAGCGCCATCTAC,0.23
